{
  "source": "PubChem BioAssay AID1345083",
  "about": "(National Center for Advancing Translational Sciences (NCATS), 2018)",
  "note": "The whole screen tested about 94,000 compounds, of which about 6,200 (6.6%) were called active. The inconclusive results got no clear call from the source; some entries with a clear call stand among them for comparison. Calls follow the shape of the dose curve; as a rule, active = well fitted inhibition curve with a large enough effect; inconclusive = small, poorly fitted or top-dose-only effect; inactive = flat fitted curve, though single readings scatter. A potency beside an inconclusive call is a rough fit, not a confirmed value. Potency is read from the fitted curve at half-maximal effect; tags tell the direction and shape of the fitted curve.",
  "data": [
    {"experiment": "Cytotoxic Profiling in HEK 293 Cell Line of Diverse Libraries Using Quantitative High-Throughput Screening; also: nearly all actives have a fitted effect of over 60% in size", "conditions": "HEK 293 viability, ATP luminescence (CellTiter-Glo), 48-72 h; series mostly up to 115 µM", "in_short": "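HEK 293 cells seeded at 250 cells/well were exposed to compound for 48 or 72 hr at 37 degree Celsius. Viability taken as ATP content by CellTiter-Glo luminescence.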", "values": [
      {"molecule": "CCOC(=O)[C@H]1CN(C(=O)c2ccc(Cl)cc2)[C@]2(C)C(=O)N(CCOC)c3ccccc3[C@H]12", "Potency": "inconclusive: 89.1 µM [inhibitor, single point]"},
      {"molecule": "COCc1cc(N2CCN(C)C3(CCC(=O)N(C)CC3)C2)ncn1", "note": "(stereo unspecified)", "Potency": "inactive"},
      {"molecule": "COc1cc2c(cc1OCc1ccncc1)NC(=O)C21CCN(C(=O)c2cccnc2)CC1", "Potency": "inactive"},
      {"molecule": "COc1ccccc1CNC(=O)[C@H]1CN2CCC1C[C@@H]2Cn1cc(CSc2ccccc2)nn1", "note": "(stereo partly specified)", "Potency": "inconclusive: 79.4 µM [inhibitor, partial curve, poor fit]"},
      {"molecule": "Cc1cccc(-c2ncc(CN3CCC4(CCCNC4)C3)cn2)c1", "note": "(stereo unspecified)", "Potency": "inconclusive: 50.1 µM [inhibitor, partial curve, poor fit]"},
      {"molecule": "CC[C@H]1CN2CC[C@H]1C[C@@H]2CNC(=S)Nc1ccc(C)cc1Br", "Potency": "inconclusive: 100 µM [inhibitor, partial curve, poor fit]"},
      {"molecule": "CN(Cc1ccccc1)C[C@H]1CN2CC[C@H]1C[C@@H]2CNC(=O)c1ccc(N(C)C)cc1", "Potency": "inconclusive: 79.4 µM [inhibitor, partial curve, poor fit]"},
      {"molecule": "CC(C)NC(=O)OC[C@H]1C[C@@H]2CCN1C[C@@H]2c1cc(-c2ccc3ccccc3c2)nn1C", "Potency": "active: 28.2 µM"},
      {"molecule": "CCOC(=O)[C@H]1CN(C(=O)CCc2ccccc2)[C@]2(C)C(=O)N(CCOC)c3ccccc3[C@H]12", "Potency": "inconclusive: 39.8 µM [inhibitor, single point]"},
      {"molecule": "Cn1nc(-c2ccccc2)cc1[C@H]1CN2CC[C@H]1C[C@@H]2CNC(=O)Nc1ccccc1", "Potency": "active: 50.1 µM"},
      {"molecule": "C#C[C@H]1CN2CC[C@H]1C[C@@H]2CNC(=O)Nc1ccc(C(C)=O)cc1", "Potency": "inconclusive: 126 µM [inhibitor, single point]"},
      {"molecule": "CCN(CC)C[C@H]1CN2CC[C@H]1C[C@@H]2CNS(=O)(=O)c1ccc(Cl)cc1", "Potency": "inconclusive: 56.2 µM [inhibitor, partial curve, poor fit]"},
      {"molecule": "COc1cc2c(cc1OC1CCCC1)NC(=O)C21CCN(C(=O)c2ccnn2C)CC1", "Potency": "inconclusive: 70.8 µM [inhibitor, partial curve, poor fit]"},
      {"molecule": "O=C(c1ccccc1)N1C[C@@H]2C[C@H](C1)c1ccc(C3CCCCC3)c(=O)n1C2", "Potency": "inconclusive: 22.4 µM [inhibitor, full curve, poor fit]"},
      {"molecule": "Cc1ccccc1C(=O)N1CCC2(CC1)c1nccn1-c1ccccc1CN2CC(C)C", "Potency": "active: 44.7 µM"},
      {"molecule": "COC(=O)N1CCC2(C1)N=C(c1cccnc1)C(=O)N2", "note": "(stereo unspecified)", "Potency": "inactive"},
      {"molecule": "Cc1ccc(S(=O)(=O)NC[C@H]2C[C@@H]3CCN2C[C@@H]3CN2CCc3ccccc32)cc1", "Potency": "active: 28.2 µM"},
      {"molecule": "CN(CCc1ccccn1)C[C@H]1CN2CC[C@H]1C[C@@H]2CNS(=O)(=O)c1ccccc1", "Potency": "inactive"},
      {"molecule": "CC(C)N1CC2CCC(C1)N2Cc1ccc(-c2cncnc2)cc1", "Potency": "inactive"},
      {"molecule": "CC(C)NC(=O)NC[C@H]1C[C@@H]2CCN1C[C@@H]2c1cc(-c2ccc3ccccc3c2)nn1C", "Potency": "active: 22.4 µM"},
      {"molecule": "NC(=O)CN1C(=O)CO[C@H]2CN(C3CCC3)C[C@H]21", "Potency": "inactive"},
      {"molecule": "COc1cc2c(cc1OCc1ccccc1)NC(=O)C21CCN(Cc2c(C)noc2C)CC1", "Potency": "active: 25.1 µM"},
      {"molecule": "O=C(NCc1ccco1)[C@H]1CN2CC[C@H]1C[C@@H]2Cn1cc(CCO)nn1", "Potency": "inconclusive: 126 µM [inhibitor, single point]"},
      {"molecule": "CCOC(=O)[C@H]1CN(C(=O)c2cccs2)[C@]2(C)C(=O)N(CC3CC3)c3ccccc3[C@H]12", "Potency": "inconclusive: 39.8 µM [inhibitor, single point]"},
      {"molecule": "CCOC(=O)[C@H]1CN(C(=O)NC2CCCC2)[C@]2(C)C(=O)N(C)c3ccccc3[C@H]12", "Potency": "inconclusive: 10 µM [inhibitor, partial curve, poor fit]"},
      {"molecule": "COc1cccc(C(=O)N2CCC3(CC2)NCc2ccccc2-n2ccnc23)c1", "Potency": "inactive"},
      {"molecule": "CN(C[C@H]1CN2CC[C@H]1C[C@@H]2CNC(=O)c1ccc(C(F)(F)F)cc1)c1ccccc1", "Potency": "active: 28.2 µM"},
      {"molecule": "CN(C)C(=O)C1CN(Cc2cccnc2)CC12CCOCC2", "note": "(stereo unspecified)", "Potency": "inactive"},
      {"molecule": "CN(C)c1ccc(C(=O)NC[C@H]2C[C@@H]3CCN2C[C@@H]3CN(C)c2ccccc2)cc1", "Potency": "inconclusive: 126 µM [inhibitor, single point]"},
      {"molecule": "CCC(CC)c1cc([C@H]2CN3CC[C@H]2C[C@@H]3COC(=O)Nc2ccccc2)nc(-c2ccncc2)n1", "Potency": "inactive"},
      {"molecule": "CC(=O)c1ccc(NC(=O)NC[C@H]2C[C@@H]3CCN2C[C@@H]3CN2CCN(C)CC2)cc1", "Potency": "inactive"},
      {"molecule": "Cc1cc(C(=O)N2[C@H]3CC[C@@H]2c2cnc(-c4ccccc4)nc2C3)n[nH]1", "Potency": "inconclusive: 56.2 µM [inhibitor, partial curve, poor fit]"},
      {"molecule": "C#C[C@H]1CN2CC[C@H]1C[C@@H]2CNCc1ccc(C(F)(F)F)cc1", "Potency": "inconclusive: 89.1 µM [inhibitor, partial curve]"},
      {"molecule": "CN(Cc1ccccc1)C[C@H]1CN2CC[C@H]1C[C@@H]2CNC(=O)Nc1ccccc1", "Potency": "active: 100 µM"},
      {"molecule": "Cc1ccc(C(=O)NC[C@H]2C[C@@H]3CCN2C[C@@H]3c2cc(-c3ccco3)nc(C)n2)cc1", "Potency": "active: 79.4 µM"},
      {"molecule": "C#C[C@H]1CN2CC[C@H]1C[C@@H]2CNC(=O)Nc1cccc(C#N)c1", "Potency": "inactive"},
      {"molecule": "CC(=O)N1C[C@@H]2C[C@H](C1)c1ccc(NC(=O)c3ccc(F)cc3)c(=O)n1C2", "Potency": "inactive"},
      {"molecule": "Cc1ccc([C@H]2CN(C(=O)c3cc(C(C)C)on3)[C@@H]3C4CCN(CC4)[C@H]23)cc1", "Potency": "inconclusive: 56.2 µM [inhibitor, partial curve, poor fit]"},
      {"molecule": "CCOCCCNC(=O)N1[C@H]2CC[C@@H]1c1cnc(-c3ccc(F)cc3)nc1C2", "Potency": "inconclusive: 56.2 µM [inhibitor, partial curve, poor fit]"},
      {"molecule": "O=S(=O)(NC[C@H]1C[C@@H]2CCN1C[C@@H]2CN1CCCC1)c1ccc(Cl)cc1", "Potency": "inconclusive: 89.1 µM [inhibitor, partial curve, poor fit]"},
      {"molecule": "CC(C)N1CCN(C(=O)Cc2cccn2-c2ccc(F)cc2)CC1", "Potency": "inactive"}
    ]}
  ]
}
